We go through 35 compounds from the supplement of paper PMC4723716.

Several values for one entry are separate records, joined by “and”; a condition that tells them apart may be missing. Equal values may be shown once. ± gives the uncertainty stated by the source. In all, about 9,900 compounds were measured (“viability index relative to DMSO control”: median about 1, lowest 2% from about 0.85 on). This is one part of the list.

This assay relates to Plasmodium falciparum NF54 stage V gametocytes. As to the kind of experiment: viability index relative to DMSO control (fraction); higher = less gametocyte killing. The conditions noted are these: 2.5 µM, library set: Broad Institute DOS, incubation time: 72 h. Put shortly: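 Gametocytes (P. falciparum NF54, stage V) were treated with compound at 2.5 µM for 72 hr at 37°C in low oxygen, in serum-free medium at 0.75% gametocytemia and 1.25% hematocrit. Counts of 20–70 µm2 red particles, taken from one field per well after MitoTracker Red CMXRos with saponin, were divided by the plate mean of solvent-only wells. This ratio is the viability index.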

`O=C(Nc1cccc(Cl)c1)N1C[C@@H]2[C@H](c3ccccc31)[C@H](CO)N2Cc1cccnc1` returned a viability index of 0.963 ± 0.065.
The figure for `CN1C(=O)c2cc(NC(=O)Cc3cccs3)ccc2OC[C@H]2O[C@H](CC(=O)NCc3ccc(-c4ccccc4)cc3)CC[C@H]21` is 1.19 ± 0.15; for `COc1ccccc1C(=O)Nc1ccc2c(c1)C(=O)N(C)C[C@@H](OC)[C@H](C)CN(C(C)=O)[C@H](C)CO2` it is 1.05 ± 0.15.
Compound `CO[C@H]1CN(C)C(=O)c2ccc(NC(=O)c3cccc(F)c3)cc2OC[C@H](C)NC[C@@H]1C` displayed a viability index of 1.08 ± 0.039.
The figure for `O=C([C@@H]1[C@@H](CO)[C@@H]2Cn3c(cccc3=O)[C@@H]2N1C(=O)CC1CC1)N1CCc2ccccc2C1` is 1.04 ± 0.031.
The figure for `CC[C@H]1C/C=C/C[C@H](C)Oc2ccccc2C(=O)N(C)[C@@H](C)C(=O)N1.CC[C@H]1C/C=C\C[C@H](C)Oc2ccccc2C(=O)N(C)[C@@H](C)C(=O)N1` is 1.12 ± 0.018; for `CN1CCN(C(=O)C[C@@H]2CC[C@@H]3[C@H](COC[C@H](O)CN3C(=O)Nc3ccc4c(c3)OCO4)O2)CC1` it is 1.07 ± 0.013.
The compound `C[C@@H]1CN([C@@H](C)CO)C(=O)c2cc(C3=CCCCC3)cnc2O[C@H]1CN(C)S(=O)(=O)c1cn(C)cn1` returned a viability index of 1.04 ± 0.015.
For `CCCC(=O)Nc1ccc2c(c1)C(=O)N(C)[C@@H]1CC[C@H](CC(=O)NCc3cccc(F)c3)O[C@H]1CO2`, the viability index came to 1.05 ± 0.1.
The figure for `Cc1ccc(S(=O)(=O)N(C)C[C@H]2OCCCC[C@H](C)Oc3ccc(NC(=O)c4ccncc4)cc3C(=O)N([C@@H](C)CO)C[C@H]2C)cc1` is 1.076 ± 0.0071; for `CO[C@@H]1CN(C)C(=O)c2cc(NC(=O)c3ccc(F)cc3)ccc2OC[C@H](C)N(C(=O)CC2CC2)C[C@@H]1C` it is 1.12 ± 0.069.
Regarding `OC[C@H]1[C@@H]2c3ccccc3NC[C@@H]2N1CC1CCOCC1`, the viability index was found to be 1.02 ± 0.072.
`CCS(=O)(=O)N1C[C@@]2(C1)CN([C@H](CO)c1[nH]c3cc(OC)ccc3c21)C(=O)c1ccc(F)cc1`: the viability index turned out to be 1.05 ± 0.045.
In turn, `N#Cc1cccc(-c2ccc([C@@H]3[C@H]4CNC[C@@H]3N4Cc3cc(F)ccc3F)cc2)c1` displayed a viability index of 0.861 ± 0.057.
The figure for `Cc1noc(C)c1NC(=O)Nc1ccc2c(c1)C(=O)N(C)[C@@H]1CC[C@@H](CC(=O)N[C@@H]3CCN(Cc4ccccc4)C3)O[C@H]1CO2` is 1.06 ± 0.059.
In the case of `COCC(=O)N1[C@H](CO)[C@@H](c2ccc(C#CCC3CCCC3)cc2)[C@@H]1C#N`, the viability index was determined as 1.13 ± 0.11.
The figure for `CC(C)NC(=O)N1[C@H](CO)[C@@H](c2ccccc2)C12CN(C(=O)c1ccccn1)C2` is 1.11 ± 0.021; for `O=C(C[C@H]1CC[C@H](NC(=O)c2ccc3c(c2)OCO3)[C@@H](CO)O1)NCc1ccc(Oc2ccccc2)cc1` it is 1.17 ± 0.013.
The figure for `CN(C)C(=O)c1cccc(-c2ccc([C@@H]3[C@@H](CO)N4C(=O)CN(C(=O)C5CCC5)C[C@@H]34)cc2)c1` is 0.998 ± 0.032; for `CCCNC(=O)N1C[C@]2(CCN(Cc3cccc(OC)c3)CC2)c2c([C@@H]1CO)n(C)c1cc(OC)ccc21` it is 1.01 ± 0.17; for `CCCN(C)C[C@@H]1OCCCC[C@@H](C)Oc2ccc(NC(=O)CCCN(C)C)cc2C(=O)N([C@H](C)CO)C[C@@H]1C` it is 1.12 ± 0.092.
The compound `CCCNC(=O)Nc1ccc2c(c1)OC[C@H](C)N(C(=O)C1CCOCC1)C[C@@H](C)[C@@H](OC)CN(C)C2=O` showed a viability index of 1.01 ± 0.087.
The figure for `CO[C@H]1CN(C)C(=O)c2cc(NC(=O)c3ccc(Oc4ccccc4)cc3)ccc2OC[C@H](C)NC[C@H]1C` is 1.04 and 1.05; for `COc1ccccc1NC(=O)N1[C@H](CO)[C@H](c2ccccc2)[C@@H]1C#N` it is 1.09 ± 0.038; for `O=C(CN1CCOCC1)N1CC[C@@H]2[C@H]1c1cc(Br)ccc1N[C@@H]2CO` it is 0.914 ± 0.051.
The figure for `C[C@@H]1CN([C@@H](C)CO)C(=O)CCCn2nncc2CO[C@H]1CN(C)C(=O)Nc1ccccc1C(F)(F)F` is 1.04 ± 0.089; for `COc1ccc2c3c([nH]c2c1)[C@H](CO)N(CC1CC1)C[C@]31CN(C1)C(=O)c1ccc(F)cc1` it is 0.9972 ± 0.0017; for `COc1ccccc1NC(=O)N1C[C@@H]2[C@H](c3ccccc31)[C@H](CO)N2CC1CCOCC1` it is 1.06 ± 0.062.
Consider `C[C@@H]1CN([C@H](C)CO)C(=O)CCCn2nncc2CO[C@@H]1CN(C)C(=O)c1ccc(N2CCN(C)CC2)cc1`, for which the viability index worked out at 0.967 ± 0.011.
The figure for `CCCNC(=O)N1[C@@H](CO)[C@@H]2c3ccccc3N(C(=O)Nc3cccc(Cl)c3)C[C@@H]21` is 1.054 ± 0.0044; for `Cc1ccccc1-c1ccc([C@@H]2[C@H](CO)N3C(=O)CN(C(=O)c4ccncc4)C[C@@H]23)cc1` it is 1.04 ± 0.041; for `O=S(=O)(c1ccc(F)cc1)N1C[C@@H]2N[C@H](C1)[C@H]2c1ccc(/C=C/c2ccccc2)cc1` it is 1.04 ± 0.055.
The figure for `CC(C)NC(=O)N(C)C[C@H]1Oc2ccc(NC(=O)Cc3ccccc3)cc2CC(=O)N([C@H](C)CO)C[C@@H]1C` is 0.945 ± 0.15; for `CO[C@@H]1CC[C@@H]2CCN(C)C(=O)[C@@H](C)N(C)C(=O)c3cccc(C#N)c3OC[C@H]1O2` it is 0.993 ± 0.041.
The figure for `N#C[C@@H]1[C@@H](c2ccc(-c3cccc(F)c3)cc2)[C@H](CO)N1C(=O)NC1CCCC1` is 0.935 ± 0.064.
